Test results published in PubChem BioAssay (Tox21).
This list was built around the results that the source calls inconclusive (neither active nor inactive); the mix of calls is not that of the screen. For part of these data: Potencies beside an inconclusive call are fits to weak or partial responses and may not hold up. The source made the active and inactive calls. Unless noted, calls follow the shape of the dose curve; as a rule, active = well fitted curve in the direction sought with a large enough effect in the repeat runs; inconclusive = weak or mixed curves; inactive = no such curve, though single readings can be large; an effect the other way counts as inactive or inconclusive.

Key:
[1] = biological target: Glucocorticoid receptor (Homo sapiens) (UniProt P04150); experiment: qHTS assay to identify small molecule agonists of the glucocorticoid receptor (GR) signaling pathway (AID 720691; active = well fitted activation curve with a large enough effect in the signal ratio in the repeat runs, not every such curve was filed as active; inconclusive = weak or mixed curves, or effect the other way; inactive = no such curve, though single readings can be large or run the other way; the % refers to the signal ratio; also: % is scaled to controls: 0 for no effect and ±100 for the full control effect); details: GR-bla HeLa, beta-lactamase reporter ratio, 18 h; activation: at 62.4 µM (top of the series) unless noted
Sequence of UniProt P04150 (P04150 whole entry, looked up): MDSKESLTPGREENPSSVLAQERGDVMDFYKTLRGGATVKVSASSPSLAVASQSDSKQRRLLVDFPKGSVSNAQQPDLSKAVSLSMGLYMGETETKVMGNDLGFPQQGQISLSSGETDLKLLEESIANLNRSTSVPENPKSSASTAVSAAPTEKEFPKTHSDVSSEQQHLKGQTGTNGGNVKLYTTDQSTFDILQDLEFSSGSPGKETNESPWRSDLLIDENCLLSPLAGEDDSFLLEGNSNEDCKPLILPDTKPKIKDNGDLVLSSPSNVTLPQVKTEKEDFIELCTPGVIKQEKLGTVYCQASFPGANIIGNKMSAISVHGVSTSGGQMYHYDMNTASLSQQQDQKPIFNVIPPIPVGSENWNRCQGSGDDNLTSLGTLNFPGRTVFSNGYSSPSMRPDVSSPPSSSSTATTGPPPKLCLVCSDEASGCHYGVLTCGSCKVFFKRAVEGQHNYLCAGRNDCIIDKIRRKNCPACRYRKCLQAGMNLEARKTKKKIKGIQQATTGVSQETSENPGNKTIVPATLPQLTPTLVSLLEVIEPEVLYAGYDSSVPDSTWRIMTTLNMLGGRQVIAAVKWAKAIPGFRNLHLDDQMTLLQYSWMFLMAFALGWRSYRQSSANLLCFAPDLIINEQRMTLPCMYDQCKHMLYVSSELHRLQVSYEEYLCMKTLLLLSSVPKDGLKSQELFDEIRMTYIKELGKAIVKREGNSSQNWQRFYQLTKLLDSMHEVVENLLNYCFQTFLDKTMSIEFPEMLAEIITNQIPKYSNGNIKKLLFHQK
Method in brief: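 Reporter read-out: fluorescence intensity following 2 h room-temperature LiveBLAzer B/G FRET substrate loading. Prior step: GR-bla HeLa cells held 4 h, then treated 18 h at 37 C.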

[2] = biological target: Androgen receptor (Homo sapiens) (UniProt P10275); experiment: qHTS assay to identify small molecule antagonists of the androgen receptor (AR) signaling pathway (AID 743035; active = well fitted inhibition curve with a large enough effect in the signal ratio in the repeat runs, not every such curve was filed as active; inconclusive = weak or mixed curves, or effect the other way; inactive = no such curve, though single readings can be large or run the other way; the % refers to the signal ratio; also: potency is read from the fitted curve at half-maximal effect); details: HEK293 AR-UAS-bla, R1881-stimulated, beta-lactamase FRET, 16 h
Sequence of UniProt P10275 (P10275 whole entry, looked up): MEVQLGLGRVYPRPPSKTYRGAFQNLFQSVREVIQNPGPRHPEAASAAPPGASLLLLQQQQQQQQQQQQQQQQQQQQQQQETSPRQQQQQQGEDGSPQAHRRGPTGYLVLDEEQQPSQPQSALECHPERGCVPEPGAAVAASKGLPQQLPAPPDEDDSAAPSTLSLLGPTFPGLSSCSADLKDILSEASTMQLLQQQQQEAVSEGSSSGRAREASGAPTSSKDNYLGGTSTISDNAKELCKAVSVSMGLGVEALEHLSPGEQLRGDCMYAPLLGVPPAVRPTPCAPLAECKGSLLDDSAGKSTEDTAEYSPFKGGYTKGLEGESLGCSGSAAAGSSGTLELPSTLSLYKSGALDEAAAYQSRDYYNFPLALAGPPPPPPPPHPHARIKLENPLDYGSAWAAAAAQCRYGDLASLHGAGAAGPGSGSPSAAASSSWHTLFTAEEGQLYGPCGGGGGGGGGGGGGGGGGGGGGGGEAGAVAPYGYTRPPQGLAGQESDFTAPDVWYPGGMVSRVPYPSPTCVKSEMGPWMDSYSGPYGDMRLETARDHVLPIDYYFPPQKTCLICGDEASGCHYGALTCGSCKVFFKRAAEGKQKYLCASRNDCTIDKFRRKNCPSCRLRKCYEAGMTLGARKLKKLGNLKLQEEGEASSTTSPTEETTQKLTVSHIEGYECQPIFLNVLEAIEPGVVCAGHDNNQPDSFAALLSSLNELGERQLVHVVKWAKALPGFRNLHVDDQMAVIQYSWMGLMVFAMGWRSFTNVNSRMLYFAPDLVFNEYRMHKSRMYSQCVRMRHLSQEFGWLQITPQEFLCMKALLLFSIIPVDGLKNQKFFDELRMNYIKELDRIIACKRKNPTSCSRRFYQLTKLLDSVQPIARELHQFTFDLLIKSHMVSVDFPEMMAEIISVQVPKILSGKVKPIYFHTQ
Method in brief: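 Using qHTS, AR-UAS-bla GripTite HEK293 cells received compound, then R1881, and were cultured 16 h at 37C/5% CO2 before a 2 h room-temperature LiveBLAzer B/G FRET substrate step and fluorescence measurement.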

[3] = biological target: Androgen receptor (Homo sapiens) (UniProt P10275); experiment: qHTS assay to identify small molecule agonists of the androgen receptor (AR) signaling pathway (AID 743036; active = well fitted activation curve with a large enough effect in the signal ratio in the repeat runs, with a control signal flat, not every such curve was filed as active; inconclusive = weak or mixed curves, or effect the other way; inactive = no such curve, though single readings can be large or run the other way; the % refers to the signal ratio; also: potency is read from the fitted curve at half-maximal effect); details: HEK293 AR-UAS-bla GripTite, beta-lactamase FRET ratio, 16 h; activation: at 62.4 µM (top of the series) unless noted
Method in brief: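 Fluorescence from a beta-lactamase FRET substrate served as read-out in AR-UAS-bla GripTite HEK293 cells. Cells were treated with DMSO-dissolved compounds for 16 h at 37C, then with LiveBLAzer B/G substrate for 2 h at room temperature.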

[4] = qHTS assay to identify small molecule antagonists of the androgen receptor (AR) signaling pathway using the MDA cell line - cell viability counter screen (AID 743041; also: % is scaled to controls: 0 for no effect and ±100 for the full control effect; nearly all actives have a fitted effect of over 45% in size); details: MDA-kb2 viability, CellTiter-Fluor, 16 h, cells co-treated with R1881 androgen agonist; viability change, negative = cytotoxic: at 70.3 µM (top of the series)
Method in brief: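 Viability counter screen run alongside the AR antagonist reporter: cells seeded 5 h before compound, R1881 added, 16 h incubation at 37C without CO2, fluorescent CellTiter-Fluor signal quantified.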

[5] = qHTS assay to identify small molecule antagonists of the androgen receptor (AR) signaling pathway - cell viability counter screen (AID 743033; also: potency is read from the fitted curve at half-maximal effect; nearly all actives have a fitted effect of over 45% in size); details: AR-bla HEK293 viability, CellTiter-Glo luminescence, 16 h; activity change, negative = cytotoxicity: at 58.5 µM (top of the series) unless noted
[6] = qHTS assay to identify aromatase inhibitors - cell viability counter screen (AID 743084); details: MCF-7 aro ERE viability, CellTiter-Fluor, 24 h; activity change, negative = cytotoxicity: at 70.3 µM (top of the series) unless noted;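 also: cells stimulated with testosterone during compound exposure; nearly all actives have a fitted effect of over 55% in size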; also: potency is read from the fitted curve at half-maximal effect
[7] = qHTS assay to identify small molecule agonists of the hypoxia (HIF-1) signaling pathway (AID 1224846; active = well fitted activation curve with a large enough effect in the signal ratio in the repeat runs, not every such curve was filed as active; inconclusive = weak or mixed curves; the % refers to the signal ratio; also: % is scaled to controls: 0 for no effect and ±100 for the full control effect); details: HRE-bla ME-180 cells, beta-lactamase ratio, 17 h; activation: at 76.8 µM (top of the series) unless noted
Method in brief: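 Hypoxia-pathway activation was scored as increased beta-lactamase from an HRE-controlled reporter in ME-180 cells; plated at 2,000 cells per well with 0.5% dialyzed FBS, they were exposed 17 hrs to compounds and then given CCF4-AM.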

[8] = qHTS assay to identify small molecule agonists of the vitamin D receptor (VDR) signaling pathway - cell viability counter screen (AID 743224); also: nearly all actives have a fitted effect of over 50% in size; also: potency is read from the fitted curve at half-maximal effect
Method in brief: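 Here cell health was gauged by luminescent ATP detection (CellTiter-Glo, 30 min RT) in VDR-bla cells that had been incubated with test compounds for 16 h at 37C and 5% CO2.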

[9] = qHTS assay to identify small molecule antagonists of the estrogen related receptor signaling pathway with the pleiotropic PPARgamma coactivator (PGC) from Tox21 10K library (AID 1224841; call rule not given here; also: actives are mostly falling curves and most rising ones were filed inactive; nearly all actives have a fitted effect of over 50% in size; also: potency is read from the fitted curve at half-maximal effect)
Method in brief: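 Each well held 2,000 PGC/ERR cells, pre-incubated six hours (37 C, 5% CO2). Test substances in DMSO were added by pin tool and left for 18 h at 37 C before luciferase detection by One-Glo.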

[10] = biological target: Bile acid receptor (Homo sapiens) (UniProt Q96RI1); experiment: qHTS assay to identify small molecule antagonists of the farnesoid-X-receptor (FXR) signaling pathway (AID 743217; active = well fitted inhibition curve with a large enough effect in the signal ratio in the repeat runs, not every such curve was filed as active; inconclusive = weak or mixed curves, or effect the other way; inactive = no such curve, though single readings can be large or run the other way; the % refers to the signal ratio; also: % is scaled to controls: 0 for no effect and ±100 for the full control effect); details: HEK293T FXR-UAS-bla, beta-lactamase ratio, CDCA-stimulated, 16 h; activity change, negative = inhibition: at 62.6 µM (top of the series) unless noted
Sequence of UniProt Q96RI1 (Q96RI1 whole entry, looked up): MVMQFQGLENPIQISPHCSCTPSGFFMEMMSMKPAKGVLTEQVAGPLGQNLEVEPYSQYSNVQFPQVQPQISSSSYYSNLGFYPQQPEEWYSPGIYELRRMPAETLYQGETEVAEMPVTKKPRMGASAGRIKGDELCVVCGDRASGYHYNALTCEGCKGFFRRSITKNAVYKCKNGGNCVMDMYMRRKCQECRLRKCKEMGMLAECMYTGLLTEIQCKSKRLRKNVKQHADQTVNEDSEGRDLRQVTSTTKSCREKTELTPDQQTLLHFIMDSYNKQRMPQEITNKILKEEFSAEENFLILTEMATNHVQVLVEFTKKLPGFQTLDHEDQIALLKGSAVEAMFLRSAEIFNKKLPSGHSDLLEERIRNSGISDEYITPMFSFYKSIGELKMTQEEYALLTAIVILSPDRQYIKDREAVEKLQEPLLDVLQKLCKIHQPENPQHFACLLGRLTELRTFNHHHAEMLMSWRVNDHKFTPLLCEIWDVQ
Method in brief: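 In this cell-based antagonist screen, inhibition of CDCA-driven (50 uM final) UAS-beta-lactamase expression in HEK 293T cells was measured by FRET fluorescence following 16 h compound exposure at 37 °C.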

[11] = test system: thyroid hormone receptor (rat, GH3 cells); experiment: qHTS assay to identify small molecule agonists of the thyroid receptor (TR) signaling pathway (AID 743066; calls by dose curve; also: % is scaled to controls: 0 for no effect and ±100 for the full control effect); details: GH3.TRE-Luc cells, TR agonist luciferase, 24 h; activation: at 83.9 µM (top of the series) unless noted
[12] = qHTS RealTime-Glo MT Cell Viability Assay in HEK293 cells - 40 hour (AID 1224874); details: RealTime-Glo luminescence; max response: active compounds read low; also: nearly all actives have a fitted effect of over 50% in size; also: potency is read from the fitted curve at half-maximal effect
Method in brief: (§1)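 Tox21 screen in HEK293 using RealTime-Glo MT chemistry, with cells and reagent co-dispensed. Luminescence proportional to viable cell number was captured at intervals during 40 h compound exposure at 37 C.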

[13] = qHTS assay to identify small molecule that activate the aryl hydrocarbon receptor (AhR) signaling pathway - cell viability counter screen (AID 743086);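 also: HepG2 liver cells carrying the AhR DRE luciferase reporter; % is scaled to controls: 0 for no effect and ±100 for the full control effect; nearly all actives have a fitted effect of over 45% in size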
Method in brief: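 HepG2-AhR-luc (HG2L7.5c1) cells, 4000/well, were preincubated 5 h at 37C, exposed to compound in qHTS format for 24 hr at 37C, then given CellTiter-Fluor for 30 min; viability was read as fluorescence in the reporter wells.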

[14] = qHTS assay to identify small molecule antagonists of the peroxisome proliferator-activated receptor gamma (PPARg) signaling pathway - cell viability counter screen (AID 743194); details: PPARg-bla HEK293H viability, CellTiter-Glo luminescence, 17 h, co-treated with 50 nM rosiglitazone; activity change, negative = cytotoxicity: at 62.6 µM (top of the series) unless noted; also: % is scaled to controls: 0 for no effect and ±100 for the full control effect; nearly all actives have a fitted effect of over 55% in size
Method in brief: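 PPARg-UAS-bla HEK293H cells were plated, rested 5 h at 37 C, then treated with compounds plus rosiglitazone (50 nM final) for 17 h at 37 C; viability was then read by CellTiter-Glo luminescence after 30 min at room temperature.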

[15] = qHTS RealTime-Glo MT Cell Viability Assay in HEK293 cells - 16 hour (AID 1224872); also: potency is read from the fitted curve at half-maximal effect; nearly all actives have a fitted effect of over 50% in size
Method in brief: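 Viability tracked continuously by luminescence as live cells reduce a prosubstrate for NanoLuc; HEK293 cells preincubated 5 h, compound-treated at 37 C, and read at 0, 8, 16, 24, 32 and 40 h.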

[16] = qHTS RealTime-Glo MT Cell Viability Assay in HEK293 cells - 8 hour (AID 1224887); also: nearly all actives have a fitted effect of over 50% in size; also: potency is read from the fitted curve at half-maximal effect
Method in brief: as §1

[17] = qHTS assay to identify small molecule antagonists of the TGF-beta/Smad signaling pathway (AID 1346924; active = well fitted inhibition curve with a large enough effect in the signal ratio in the repeat runs, not every such curve was filed as active; inconclusive = weak or mixed curves; the % refers to the signal ratio); details: SBE-bla HEK293T, TGF-beta/Smad reporter, beta-lactamase ratio; activity, negative = inhibition: at 76.8 µM (top of the series) unless noted
Method in brief: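 SBE-bla HEK 293T cells were plated overnight, then received compound in DMSO plus TGF-beta1 (added as a 0.25 ng/mL solution) and were incubated 5 h at 37 C. Beta-lactamase reporter activity was read after 2 h at room temperature with LiveBLAzer B/G FRET substrate (ex 405, em 460/530 nm).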

[18] = activity change, negative = inhibition: at 58.5 µM (top of the series) unless noted
Tags tell the direction and shape of the fitted curve or compound fluorescence and quenching.

## c1ccc2c(c1)[nH]c1ccccc12
[1]
  Potency: inactive
[2]; [18]
  activity change, negative = inhibition: inconclusive: 0.74%
[2]; at 58.5 µM (top of the series)
  activity change, negative = inhibition: inactive: -13%
[3]
  Potency: inconclusive: 60.6 µM [rising, partial curve, poor fit]
[4]
  Potency: inactive

## C/C=C1\C(=O)C[C@H]2[C@@H]3CCC4=CC(=O)CC[C@]4(C)[C@H]3CC[C@]12C
[5]
  Potency: inconclusive: 13.5 µM [cytotoxic, partial curve, poor fit]

## CC(C)OC(=O)C(C(=O)OC(C)C)=C1SC=CS1
[2]; [18]
  activity change, negative = inhibition: inconclusive: -29%

## Cc1ccc(O)c(C(=O)c2ccccc2)c1
[3]
  Potency: inactive
[6]
  Potency: inconclusive: 30.9 µM [cytotoxic, full curve, poor fit]

## Nc1ccc(C(=O)N2CC3CC(CN(Cc4ccccc4)C3)C2)cc1
[7]
  activation: inconclusive: 12.8% [at 35.5 µM]

## COC(=O)c1ccc(C=O)cc1
[8]
  Potency: inactive

## CC(C)(C)c1nnc(NS(=O)(=O)c2ccc(N)cc2)s1
[7]
  Potency: inactive

## O=C(O[C@@H](C(=O)O)[C@@H](OC(=O)c1ccccc1)C(=O)O)c1ccccc1
[4]
  Potency: inactive
[9]
  Potency: inconclusive: 1.56 µM [falling, full curve, poor fit]

## NC(=O)NS(=O)(=O)c1ccc(Cl)cc1
[10]
  Potency: inactive

## CO[Si](CCCNCCNCCN)(OC)OC
[9]
  Potency: inconclusive: 77 µM [falling, partial curve, poor fit]

## CCC(C)C(=O)OC (stereo unspecified)
[9]
  Potency: inconclusive: 61.1 µM [falling, partial curve, poor fit]

## O=C(CCCCC(=O)Nc1c(I)cc(I)c(C(=O)O)c1I)Nc1c(I)cc(I)c(C(=O)O)c1I
[11]
  Potency: inactive
[9]
  Potency: inconclusive: 23.7 µM [falling, partial curve]

## NC(=O)Cc1cccc(C(=O)c2ccccc2)c1N
[12]
  max response: inactive: -24.1%

## CCC(C)(C)C1CCC(=O)CC1
[2]; [18]
  Potency: inactive

## C1CCCCCCCCCCC1
[2]; [18]
  Potency: inconclusive: 6.75 µM [rising, partial curve, poor fit]
[4]
  Potency: inactive
[13]
  Potency: inactive
[14]
  Potency: inactive
[9]
  Potency: inconclusive: 5.97 µM [falling, partial curve, poor fit]
[15]
  Potency: inconclusive: 13.5 µM [cytotoxic, single point]
[16]
  Potency: inconclusive: 13.5 µM [cytotoxic, single point]

## CCOC(=O)c1c(C)n(C)c2ccc(O)cc12
[2]; [18]
  Potency: inconclusive: 19 µM
[3]
  Potency: inconclusive: 30.1 µM
[14]
  Potency: inactive
[8]
  Potency: inactive
[9]
  Potency: inactive

## CCCCCCCC=O
[6]
  Potency: inconclusive: 76.3 µM [rising, partial curve, poor fit]
[8]
  Potency: inconclusive: 61.6 µM [cytotoxic, partial curve, poor fit]

## Cc1cc(C)c(C(=O)O)c(C)c1
[4]
  Potency: inactive
[16]
  Potency: inactive

## CCOB(OCC)OCC
[7]
  Potency: inactive
[15]
  Potency: inconclusive: 54.9 µM [cytotoxic, single point]
[12]
  Potency: inconclusive: 54.9 µM [cytotoxic, single point]
[16]
  Potency: inconclusive: 54.9 µM [cytotoxic, single point]

## COCCOCCOCCOCCOCCO
[7]
  Potency: inactive

## [Ca+2]
[1]
  Potency: inactive

## COC(=O)c1ccc([N+](=O)[O-])cc1
[9]
  Potency: inconclusive: 0.0043 µM [falling, full curve, poor fit]

## CCc1cccc(CC)c1N(COC)C(=O)CS(=O)(=O)O
[7]
  Potency: inactive
[17]
  activity, negative = inhibition: inconclusive: -20.7%

## C=CC(=O)N1CCOCC1
[10]
  Potency: inactive

## c1cc(CCCc2ccncc2)ccn1
[6]
  Potency: inactive
[13]
  Potency: inactive
[9]
  Potency: inconclusive: 68.6 µM [falling, single point]

## C1CN(CCOCCN2CCOCC2)CCO1
[11]
  Potency: inactive
